ETS1 binding intensity data for 62 sequences are collected here from the supplement of paper PMC10681739.

± gives the standard deviation of the averaged measurements. In all, about 4,100 sequences were measured (“arbitrary fluorescence units”: median about 780, highest 2% from about 22,000 on). Some of the results follow.

This assay addresses T1, ETS1 (UniProt P14921).
T1 sequence: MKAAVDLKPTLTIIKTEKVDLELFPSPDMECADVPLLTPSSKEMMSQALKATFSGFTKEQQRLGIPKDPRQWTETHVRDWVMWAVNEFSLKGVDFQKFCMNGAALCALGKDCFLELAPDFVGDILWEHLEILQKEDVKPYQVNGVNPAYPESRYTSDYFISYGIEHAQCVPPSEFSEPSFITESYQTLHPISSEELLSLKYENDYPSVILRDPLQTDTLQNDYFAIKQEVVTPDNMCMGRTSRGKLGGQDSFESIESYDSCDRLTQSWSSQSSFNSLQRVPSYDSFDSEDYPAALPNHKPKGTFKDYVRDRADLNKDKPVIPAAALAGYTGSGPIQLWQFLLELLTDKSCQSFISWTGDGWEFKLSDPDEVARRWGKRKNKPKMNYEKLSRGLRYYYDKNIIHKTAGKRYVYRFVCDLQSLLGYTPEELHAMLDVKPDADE
Kind of assay: ETS1 binding intensity (PBM fluorescence), ETS1 alone (arbitrary fluorescence units); higher = stronger binding. The settings on record: ETS1 concentration 1 nM; RUNX1 concentration 0 nM. Here is the method: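 gcPBM on 36-bp genomic-derived probes (partner site mutated) containing one ETS1 site and no RUNX1 site. Recombinant human ETS1 (1 nM) was incubated alone or with RUNX1 (25 nM) and detected by anti-ETS1 antibody fluorescence. Values are medians over 4 replicate spots (not normalised). The probes sit in constant array flanks that are not printed.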
Regarding ACGACCGGAACGTGGACAACCAGGGGTTGTTCCTCC, the ETS1 binding intensity was 504. Then CCTCTTGGTTTCCTGTCCCTCACCTCAAGAAGCAGT, with 8280; and AGCTGCCAACAGCAGCGCTACTTCCGGCCGCCTCCG, with 17900. Then AGGAGTGAGGAAGTGAGGCTGGCCTTGTAGGTGTGG, with 707; and AGGTGTAGGTGACTCAGAGCGGGCGGATGAGAACAG, with 450.

GCATGCGCCTTGCTCGGTACTCAGCTGACTTCCTGT returned an ETS1 binding intensity of 952. On to ACAAAGTCAGTGGCAATGTGGAACGTCCGCCAAGAG, for which the ETS1 binding intensity came to 384. In the case of GAGAAAGCAGCGCCCCAGCGCGCCTTCCGCCACGCC it was 328; in that of TCCACGGTGCCTCTAGGGGGCGGGGCTTCCGGCTGG, 981; in that of CCGGATTGGTCCGGTTCCAGCGCCGAAGCCCGGCGG, 354. In the case of AACTTCCTCATTTCTCCAACTGTCCAGCCAGAGAAA it was 13300; in that of TCCCACATCCTGTGCTCGTGCAGTGCTTAGGCTCAA, 18200; in that of CTGCGCTTCCGCTTCACCCGGAGTACAGGGGTCCTG, 11400. In the case of CCTGTCCGGAAGTCCTGAGAGGGAATCGCCCGTAAA it was 6580. The sequence CAAGGGAATAGCCGCTGACGGAAGCAGACAGCCTGT returned an ETS1 binding intensity of 509.

Consider GCGCAGCCCGTTTCCCCTCTTGGCGGCTGCGAACTT, for which the ETS1 binding intensity came out at 1080. In the case of AAGTGCTTGCATATAGGGCGAATCGGCTTCCTGCTA it was 463; in that of GCCTCCTCCCATTTCCTCCATGTGCTCAATCCAGTT, 2520; in that of GACGGAAGCCGAGAGGCTCCCGTAAGCGCTCTTGAG, 382. Then AGGCTCCGGCGCAGTGCCAGCCGGAACTTGGGGTTC, with 536. Then CAGCAGTAAGCTACAGAGGAAAACAGGAAGTGATAC, with 3030. In turn, TGCCATCTTGAGGTGGCGCCGGGTTTCCGCTCAGGC came in with an ETS1 binding intensity of 872. Then TCTTCGGGACTAAGAGGCGGGGAAAGGAAGCGAAAG, with 461; and CGGAGCGCGCTGGGGTGGGTGCGGAAGGGGGCGAGG, with 590. As to CCACCCTCCGTCCGGCCGCGACAGCGAGGAGGAAGA, the ETS1 binding intensity turned out to be 1180. Sequence AGGCGCTGAGGGGATGGTGAGGACGCTATCCGGGGC registered an ETS1 binding intensity of 336. On to GACCGAGAGGAAGCAGCAAGGATCCTGCTGTTCCAG, for which the ETS1 binding intensity was determined as 931. In the case of TCCCTGGAGCGGATTTAGGGGGCCGCTTCCTTGGCC it was 385 ± 49.

As to CTCCCGCCTTCCTCCCGGTTTACGGCCATTGACCGT, the ETS1 binding intensity came to 798. With GCGAAAGGAACTTCCTTTGCATGCGCTCAGAGTGCT, the ETS1 binding intensity came to 3940.

ACTTACAAAGGAAGTGACAGAACGACAGAAAAGACC displayed an ETS1 binding intensity of 2840.

Sequence TTTGTTGGGGTTGGTGAGTCACTTCCTCCCTCTCGC registered an ETS1 binding intensity of 1160. Then AATCCAACACTTCCTCCTCCACCTCAGAAAGGCAAC, with 3860; and TGCCGTTTCCGGGTCACCCAGGCAGCTTTTGGCGGC, with 13900.

ACAGGAAATGACTTAGGGAAAGTCCCAACGGCAATC had an ETS1 binding intensity of 1770. GGGGCTCCGCAGGAAGTAGGGCTCCCAGAACTTTGC displayed an ETS1 binding intensity of 2040. Then GTGTGTGCGTGGGGAGAGCTGCAGCCACAGGAAACG, with 597. ATGGCGGGCGCTGCAGTGGGCAGTTGAGTTTCCGGG gave an ETS1 binding intensity of 506. As for GGCACACTGCTGTTGCACCATAAGCTTCCTGGATGG, the ETS1 binding intensity was found to be 511. Then TCCGGAAGTGGCACTGATGGGCGCCAGCGGCGGGGG, with 6520; and GGAAAGCGGAAGAAAAAAGCAAGATGGGACCCCAAG, with 642. In the case of CCACCTCCTCCGGACGCCGCCCGAAACTGAGCATGC it was 591.

In turn, CCGACCCCAGCTTCCCGGGGTTGAGGCCCTGCCTCC yielded an ETS1 binding intensity of 462. Then ATCAGGGGAAACGGCCAAGGTGGCGGGAGTCTCTTC, with 390; and ATTGGTTTCTGTCGTTGACGAGGCATCCGGTCTATG, with 2160. With GCTACGGGTTCCCCGGATGGAGCCGCTGTCCGGCCG, the ETS1 binding intensity is 581. For TGAGTCATTTCCTGGGTGGGGGCTACAAGACCAGGT, the ETS1 binding intensity came to 6470. For CTTATCAACTACCAAGAGACATTTCCCCTTTGTACT, the ETS1 binding intensity amounted to 558. In the case of AGCTCTGCCAGGAAGTGAGAACGACAGGCCTCCCCT it was 2100; in that of CAGCACACACCGTACGGGGCGACAGCTTCCGGGGGC, 1280; in that of CAGGACGCTGTCGCTGCAGCTTCTTCCGGCTAGCTG, 1610. The sequence TGCAATCTTAGCCGCTGTGCTTCCGTCGCAGTGGGA came in with an ETS1 binding intensity of 702. Then GGATCGGCCTGAGGTGTGTCTCATTTCCTGTAGGTA, with 2130.

Sequence AGTGTAGTAATCACAGGCCCCGGAAACCTCCCCCTC returned an ETS1 binding intensity of 392. In the case of TTTTCTCTAAACTACATGAAAACAGGAAATGAGCCT it was 2740; in that of AGAAACTACAAAACCCCATTTGAAATTCCGCCGTGC, 352; in that of GCGTTCGTGGGGCGGCAGCTGCGGAACTGCGCGATT, 401.

The sequence AGCTGAGGTCGAGGTGCAGCAGCAGGAAACGTGATA returned an ETS1 binding intensity of 633. Then CAGGACCCCTGTACTCCGGGTGAAGCGGAAGCGCAG, with 667. The sequence GGTGGCCCCAAATAGATATGCATACGGACGTTACAC gave an ETS1 binding intensity of 387. As for GAAACCGGAAGCGGCGGCTGTCCACGGTGCCGGCTG, the ETS1 binding intensity was 17600. Then TGTGAGCACAGCTGGGGGCGGGGCAGGAAGTAGAAG, with 1640.
